# Measured values reported in the supplement of paper PMC8728848.
# The list shows a part of the results.
# Columns and labels:
# Experiment in all cases: glycan array binding signal (z-score within array); higher = stronger binding
# Settings in all cases: glycan notation: IUPAC condensed, linker removed
# [1] = target: Man(a1-2)Man(a1-2)Man(a1-6)[Man(a1-3)]Man
# In short: (§1)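 The Consortium for Functional Glycomics database supplied 3228 glycan arrays, of which those lacking an available protein sequence were dropped. The binding signal, a within-array Z-score, was averaged across arrays of the same protein sequence and across linkers. Negative scores can be read as non-binding.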
# Man(a1-2)Man(a1-3)Man = target: Man(a1-2)Man(a1-3)Man
# In short: as §1
# [2] = target: Man(a1-2)Man(a1-3)[Man(a1-2)Man(a1-6)]Man
# In short: as §1
# [3] = target: Man(a1-2)Man(a1-3)[Man(a1-2)Man(a1-6)]Man(a1-6)[Man(a1-2)Man(a1-2)Man(a1-3)]Man(b1-4)GlcNAc(b1-4)GlcNAc
# In short: as §1
# [4] = target: Man(a1-2)Man(a1-3)[Man(a1-3)[Man(a1-6)]Man(a1-6)]Man(b1-4)GlcNAc(b1-4)GlcNAc
# In short: as §1
# [5] = target: Man(a1-2)Man(a1-3)[Man(a1-6)]Man(a1-6)[Man(a1-2)Man(a1-3)]Man(b1-4)GlcNAc(b1-4)GlcNAc
# In short: as §1
# [6] = target: Man(a1-2)Man(a1-6)[Man(a1-3)]Man(a1-6)[Man(a1-2)Man(a1-2)Man(a1-3)]Man(b1-4)GlcNAc(b1-4)GlcNAc
# In short: as §1
# Man(a1-3)[Man(a1-6)]Man = target: Man(a1-3)[Man(a1-6)]Man
# In short: as §1
# [7] = target: Man(a1-3)[Man(a1-6)]Man(a1-6)[Man(a1-2)Man(a1-3)]Man(b1-4)GlcNAc(b1-4)GlcNAc
# In short: as §1
# [8] = target: Man(a1-3)[Man(a1-6)]Man(a1-6)[Man(a1-3)]Man(b1-4)GlcNAc(b1-4)GlcNAc
# In short: as §1
# [9] = target: Man(a1-3)[Man(a1-6)]Man(b1-4)GlcNAc(b1-4)GlcNAc
# In short: as §1
# Man(b1-4)GlcNAc = target: Man(b1-4)GlcNAc
# In short: as §1
# Neu5Ac(a2-3)Gal = target: Neu5Ac(a2-3)Gal
# In short: as §1
# [10] = target: Neu5Ac(a2-3)Gal(b1-3)GalNAc
# In short: as §1
# [11] = target: Neu5Ac(a2-3)Gal(b1-3)GalNAc(b1-3)Gal(a1-4)Gal(b1-4)Glc
# In short: as §1
# [12] = target: Neu5Ac(a2-3)Gal(b1-3)GalNAc(b1-3)Gal(b1-4)GlcNAc
# In short: as §1
# [13] = target: Neu5Ac(a2-3)Gal(b1-3)GalNAc(b1-4)[Neu5Ac(a2-3)]Gal(b1-4)Glc
# In short: as §1
# [14] = target: Neu5Ac(a2-3)Gal(b1-3)GalNAc6S
# In short: as §1
# [15] = target: Neu5Ac(a2-3)Gal(b1-3)GlcNAc
# In short: as §1
# [16] = target: Neu5Ac(a2-3)Gal(b1-3)GlcNAc(b1-3)Gal(b1-4)GlcNAc
# In short: as §1
# [17] = target: Neu5Ac(a2-3)Gal(b1-3)GlcNAc6S
# In short: as §1
# [18] = target: Neu5Ac(a2-3)Gal(b1-3)[Fuc(a1-4)]GlcNAc
# In short: as §1
# [19] = target: Neu5Ac(a2-3)Gal(b1-3)[Fuc(a1-4)]GlcNAc(b1-3)Gal(b1-4)[Fuc(a1-3)]GlcNAc
# In short: as §1
# [20] = target: Neu5Ac(a2-3)Gal(b1-3)[Neu5Ac(a2-3)Gal(b1-4)]GlcNAc
# In short: as §1
# [21] = target: Neu5Ac(a2-3)Gal(b1-3)[Neu5Ac(a2-6)]GalNAc
# In short: as §1
# Neu5Ac(a2-3)Gal(b1-4)Glc = target: Neu5Ac(a2-3)Gal(b1-4)Glc
# In short: as §1
# [22] = target: Neu5Ac(a2-3)Gal(b1-4)GlcNAc
# In short: as §1
# [23] = target: Neu5Ac(a2-3)Gal(b1-4)GlcNAc(b1-2)Man(a1-3)[Neu5Ac(a2-3)Gal(b1-4)GlcNAc(b1-2)Man(a1-6)]Man(b1-4)GlcNAc(b1-4)GlcNAc
# In short: as §1
# [24] = target: Neu5Ac(a2-3)Gal(b1-4)GlcNAc(b1-3)Gal(b1-4)GlcNAc
# In short: as §1
# [25] = target: Neu5Ac(a2-3)Gal(b1-4)GlcNAc(b1-3)Gal(b1-4)GlcNAc(b1-3)Gal(b1-4)GlcNAc
# In short: as §1
# [26] = target: Neu5Ac(a2-3)Gal(b1-4)GlcNAc(b1-3)Gal(b1-4)[Fuc(a1-3)]GlcNAc
# In short: as §1
# [27] = target: Neu5Ac(a2-3)Gal(b1-4)GlcNAc6S
# In short: as §1
# [28] = target: Neu5Ac(a2-3)Gal(b1-4)[Fuc(a1-3)]GlcNAc
# In short: as §1
# [29] = target: Neu5Ac(a2-3)Gal(b1-4)[Fuc(a1-3)]GlcNAc(b1-3)Gal
# In short: as §1
# [30] = target: Neu5Ac(a2-3)Gal(b1-4)[Fuc(a1-3)]GlcNAc(b1-3)Gal(b1-4)GlcNAc
# In short: as §1
binder,measurement,setting,value
T7P4 (Tuber borchii) (protein) GSHIGPYMSFYASSEDVRTIEEGGRTWLVGRARRADGSWQDIKLDLDNIIGNRDGHLTWGEQNFTQSASDIRFNFEGSNVPVLRAKLRNAAGGEQESDLNLGERLTNNNGDLVFN,glycan array binding signal (z-score),[1],0.12
same,glycan array binding signal (z-score),Man(a1-2)Man(a1-3)Man,-0.203
same,glycan array binding signal (z-score),[2],-0.212
same,glycan array binding signal (z-score),[3],-0.215
same,glycan array binding signal (z-score),[4],-0.223
same,glycan array binding signal (z-score),[5],-0.213
same,glycan array binding signal (z-score),[6],-0.179
same,glycan array binding signal (z-score),Man(a1-3)[Man(a1-6)]Man,-0.219
same,glycan array binding signal (z-score),[7],-0.223
same,glycan array binding signal (z-score),[8],-0.225
same,glycan array binding signal (z-score),[9],-0.226
same,glycan array binding signal (z-score),Man(b1-4)GlcNAc,-0.217
same,glycan array binding signal (z-score),Neu5Ac(a2-3)Gal,-0.099
same,glycan array binding signal (z-score),[10],-0.079
same,glycan array binding signal (z-score),[11],-0.113
same,glycan array binding signal (z-score),[12],-0.207
same,glycan array binding signal (z-score),[13],-0.213
same,glycan array binding signal (z-score),[14],-0.152
same,glycan array binding signal (z-score),[15],-0.152
same,glycan array binding signal (z-score),[16],-0.207
same,glycan array binding signal (z-score),[17],-0.223
same,glycan array binding signal (z-score),[18],-0.184
same,glycan array binding signal (z-score),[19],0.101
same,glycan array binding signal (z-score),[20],-0.195
same,glycan array binding signal (z-score),[21],-0.222
same,glycan array binding signal (z-score),Neu5Ac(a2-3)Gal(b1-4)Glc,1.89
same,glycan array binding signal (z-score),[22],-0.214
same,glycan array binding signal (z-score),[23],-0.218
same,glycan array binding signal (z-score),[24],-0.225
same,glycan array binding signal (z-score),[25],-0.223
same,glycan array binding signal (z-score),[26],-0.21
same,glycan array binding signal (z-score),[27],-0.208
same,glycan array binding signal (z-score),[28],-0.116
same,glycan array binding signal (z-score),[29],-0.223
same,glycan array binding signal (z-score),[30],-0.218
